The source of these data is PubChem BioAssay AID1645887 (National Center for Advancing Translational Sciences (NCATS), 2021).

Structures are written as SMILES. Where “and” joins values, the source holds several entries; their conditions need not be identical. Identical values can stand only once. The whole screen tested about 16,000 compounds, of which about 40 (0.2%) were called active. Another 1% or so got no clear call; they are omitted. Calls come from the whole dose curve; as a rule, active = well fitted activation curve with a large enough effect; inconclusive = small, poorly fitted or top-dose-only effect, or another doubt; inactive = no such curve, though single readings can be large or run the other way. This is one part of the list.
% is set by controls: 0 for no effect and ±100 for the full control effect.

UniProt Q8WZA2, sequence (Q8WZA2 whole entry, looked up): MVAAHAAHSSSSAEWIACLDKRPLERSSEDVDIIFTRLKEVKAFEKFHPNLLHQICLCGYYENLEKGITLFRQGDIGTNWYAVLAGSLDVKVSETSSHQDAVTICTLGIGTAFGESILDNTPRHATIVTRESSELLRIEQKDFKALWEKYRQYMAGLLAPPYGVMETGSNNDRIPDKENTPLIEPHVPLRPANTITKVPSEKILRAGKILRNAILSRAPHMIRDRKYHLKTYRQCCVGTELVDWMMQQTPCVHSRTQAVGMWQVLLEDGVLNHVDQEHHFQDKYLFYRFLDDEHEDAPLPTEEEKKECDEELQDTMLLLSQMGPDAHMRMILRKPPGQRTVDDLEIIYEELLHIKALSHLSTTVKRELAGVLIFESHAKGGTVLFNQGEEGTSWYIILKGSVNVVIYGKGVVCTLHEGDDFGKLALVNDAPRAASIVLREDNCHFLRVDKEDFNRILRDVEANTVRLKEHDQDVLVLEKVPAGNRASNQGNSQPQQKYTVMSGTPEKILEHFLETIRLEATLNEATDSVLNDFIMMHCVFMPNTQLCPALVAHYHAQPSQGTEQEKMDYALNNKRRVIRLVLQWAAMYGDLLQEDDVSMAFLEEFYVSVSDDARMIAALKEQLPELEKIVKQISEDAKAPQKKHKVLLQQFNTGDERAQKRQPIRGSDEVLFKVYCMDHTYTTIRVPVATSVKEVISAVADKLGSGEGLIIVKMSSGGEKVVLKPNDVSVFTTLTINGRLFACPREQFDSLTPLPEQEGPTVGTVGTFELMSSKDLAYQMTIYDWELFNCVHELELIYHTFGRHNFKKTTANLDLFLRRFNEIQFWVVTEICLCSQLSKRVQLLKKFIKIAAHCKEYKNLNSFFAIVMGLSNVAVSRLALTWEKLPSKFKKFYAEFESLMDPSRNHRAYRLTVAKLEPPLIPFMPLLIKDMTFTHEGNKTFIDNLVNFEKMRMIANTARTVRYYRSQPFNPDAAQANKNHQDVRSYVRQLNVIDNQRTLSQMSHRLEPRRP

The experiment deals with Rap guanine nucleotide exchange factor 4 (Homo sapiens) (UniProt Q8WZA2). The experiment is described as follows: Validation qHTS for agonist of cAMP-regulated guanine nucleotide exchange factor 4 (EPAC2).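 Note: exchange makes BODIPY-GDP fluorescence drop when released from Rap1B; series mostly up to about 150 µM.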 The note with it: EPAC2 Rap1B BODIPY-GDP exchange, fluorescence; activation: active compounds read high. The procedure, abridged:
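Fluorescent exchange assay: 100 nM EPAC2 with 250 nM RAP1B-BODIPY-GDP and 50 uM GDP; compound added, 5 min at room temperature, then read (ex 480/em 540 nm) every 5 min for 30 min. Normalized to 6.5 mM cAMP agonist control.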
Background: Quantitative high-throughput screening tests each substance at several concentrations.
As for `CSCC[C@@H](N)C(=O)O`, the activation was inactive: -1.69%.

Consider `N#Cc1cccc(NC(=O)N2CC3(CCN(C(=O)c4cccc(F)c4)CC3)C2)c1`, for which the activation is inactive: -11%.

For `O=C(c1ccc(F)cc1)C1CCN(CCCCc2ccccc2)CC1`, the activation was inactive: -5.1%.

Consider `CC(NC(=O)c1ccco1)c1nnc2n1CCN(Cc1cccc(Cl)c1)CC2` (stereo not given), for which the activation was inactive: -9.35%.

With `c1ccc2c(c1)CCCC2C1=NCCN1` (stereo not given), the activation was inactive: 14.5% and inactive: 22.8% and inactive: -6.65%.

On to `COc1cccc(CCc2ccccc2OCC(CN(C)C)OC(=O)CCC(=O)O)c1` (stereo not given), for which the activation is inactive: -17.7%.

In the case of `CCCCN1C[C@H](O)[C@@H](O)[C@H](O)[C@H]1CO`, the activation is inactive: -0.678%.

Consider `CCn1c(-c2ccccc2F)nc2cc(C(=O)NCc3ccc(C)o3)cc(NC(C)=O)c21`, for which the activation was inactive: 1.44%.

Take `C[C@@H]1C(=O)O[C@H]2[C@@H](O)[C@@]34[C@H]5CC(C(C)(C)C)[C@]36[C@@H](OC(=O)[C@@H]6O)O[C@@]4(C(=O)O5)[C@@]12O` (stereo not given in full): the activation is inactive: -5.58%.

Consider `O=C(c1ccc2[nH]ccc2c1)N1CCOc2ccc(CN3CCN(c4ccccn4)CC3)cc2C1`, for which the activation was inactive: -16.3%.

Consider `CN1CCN(c2ncc3nc(CCc4ccccc4)c(=O)n(Cc4cccs4)c3n2)CC1`, for which the activation is inactive: 14.9%.

For the molecule `COc1ccc(Oc2ncc3nc(-c4cccc(C#N)c4)c(=O)n(CCC#N)c3n2)cc1`, the activation was inactive: -20.5%.

Regarding `O=c1ccc2cc3ccoc3cc2o1`, the activation was inactive: 3.94%.

Take `COc1ccc(-c2nc3cnc(Oc4ccccc4)nc3n(CCC#N)c2=O)cc1`: the activation was inactive: 4.24%.

As for `CN(C)Cc1ccccc1-c1nc(N(C)C)c2ccccc2n1`, the activation is inactive: -6.73%.

As for `CN=c1nc(-c2ccccc2)n(-c2ccccc2)s1`, the activation was inactive: -20.2%.

`COc1ncc2nc(-c3ccc(Cl)cc3)c(=O)n(-c3ccccc3)c2n1`: the activation is inactive: -15.3%.

`O=C(N[C@H]1CCC(=O)N([C@H](CSc2ccccc2)Cc2ccccc2)CC1)OCc1ccccc1`: the activation is inactive: -6.72%.

For the molecule `CC(=O)N1CCC[C@@]2(CCN(C(=O)Nc3ccccc3)C2)C1`, the activation is inactive: -3.87%.

`CC(=O)NCCNc1ncncc1-c1ccccc1CN(C)C`: the activation is inactive: -3.76%.

As to `CCC1CN(CCNC(=O)C2CCCCN2C)Cc2cc(OC)ccc2O1` (stereo not given), the activation was inactive: -7.43%.

In the case of `O=C(O)[C@H]1CN(CCCP(=O)(O)O)CCN1`, the activation was inactive: -7.58% and inactive: 2.42%.

On to `COc1ccc2[nH]c3c(c2c1)CCNC3=O`, for which the activation was inactive: -30.7%.

Consider `COC(=O)[C@@H](CC(C)C)N(Cc1ccccc1)S(=O)(=O)N(Cc1ccccc1)[C@@H](CC(C)C)C(=O)OC`, for which the activation was inactive: -16.6%.

In the case of `CC(=O)NCCNc1nc(-c2ccc3c(c2)OCO3)nc2ccccc12`, the activation was inactive: -5.7%.

As for `Cc1nc2cnc(N3CCOCC3)nc2n(Cc2ccc(F)cc2)c1=O`, the activation was inactive: -2.06%.

Regarding `COCC(=O)N1CCC[C@@]2(CCN(c3ncccn3)C2)C1`, the activation is inactive: -19.3%.

As to `CC(C)[C@H]1CC[C@@H](C)C[C@H]1O`, the activation is inactive: 5.12%.

`COc1ccc(Oc2ncc3nc(CCc4ccccc4)c(=O)n(C)c3n2)cc1`: the activation is inactive: -20.2%.

On to `CCOc1cccc(CN2CCC(n3cc(C(=O)N4CCCCC4)nn3)CC2)c1O`, for which the activation was inactive: -17.3%.

As for `O=C1NCCN1c1ncc([N+](=O)[O-])s1`, the activation is inactive: 8.92%.

Consider `O=C(NCC1Cc2cccc(-c3cnccn3)c2O1)c1ccc(F)c(Cl)c1` (stereo not given), for which the activation is inactive: -9.54%.

In the case of `C[Se]CC[C@H](N)C(=O)O`, the activation is inactive: -5.06%.

`O=C(/C=C(\O)c1ccccc1)c1ccccc1O`: the activation was inactive: 7.76%.

`COc1ccc(-c2nc3cc(C)ccc3cc2CN(C(=O)c2cc(C)nn2C)C2CC2)cc1OC`: the activation was inactive: 1.72%.

On to `O=C(O)C1=C[C@@H](O)[C@@H](O)[C@H](O)C1`, for which the activation is inactive: 0.761%.

In the case of `O=S(=O)(c1ccccc1)N1CCC2(CCN(Cc3nccs3)CC2)CC1`, the activation is inactive: -0.608%.

As for `C1N2CN3CN1CN(C2)C3`, the activation is inactive: -5.37% and inactive: -18.9%.

With `CCN(CC)CCNC(=O)c1cnn(-c2nccc(-c3cc4ccccc4o3)n2)c1C`, the activation is inactive: -25.5%.

With `O=C(c1cccc(F)c1)N1CCC2(CCCN(Cc3ccccc3)C2)CC1`, the activation was inactive: -5.42%.

Consider `CCOC(=O)c1c(C)[nH]c2ccc3c(c12)CN1CCc2cc(OC)ccc2[C@@H]1O3`, for which the activation is inactive: -14.1%.

Turning to `O=C(O)C1CCNCC1`, the activation was inactive: -5.44%.

As for `NC(N)=NN=Cc1c(Cl)cccc1Cl`, the activation was inactive: -15.5%.

Regarding `Cc1ncc2c(c1CNC(=O)c1ccc3c(c1)OCO3)CCN(C(=O)c1cnsn1)C2`, the activation is inactive: -11.5%.

Consider `Cc1cccc(CNc2ncncc2-c2ccc(C(=O)N(C)C)cc2)c1`, for which the activation is inactive: -6.06%.

`CC1(C)CCC(NC(=O)[C@@H](N)CCC(=O)O)CC1`: the activation was inactive: -10.2% and inactive: -7.65%.

With `CS(=O)(=O)N1CCC2(CCN(c3ccncc3)CC2)CC1`, the activation was inactive: -6.4%.

On to `NCCn1oc(=O)[nH]c1=O`, for which the activation was inactive: -0.174%.

On to `Nc1ncnc2c1ncn2C1CC(O)C(CO)O1` (stereo not given), for which the activation is inactive: -9.28% and inactive: -0.635%.

Turning to `COCCn1c(=O)c(-c2ccc(F)cc2)nc2cnc(Nc3cccc(OC)c3)nc21`, the activation is inactive: 6.42%.

Regarding `C[C@@]1(C(=O)O)NCCc2cc(O)c(O)cc21`, the activation is inactive: -24.9%.

As to `CCCCCCCC/C=C\C/C=C\C/C=C\CCCC(=O)NCCO`, the activation is inactive: -31.9%.

As to `COC(=O)c1ccc(CN2CCC3(CCC(CNC(=O)c4ccco4)O3)CC2)cc1` (stereo not given), the activation was inactive: -8.93%.

As to `CN(C)C=Nc1c(I)cc(I)c(CCC(=O)O)c1I`, the activation is inactive: -2.85%.

Consider `CC(C)NC[C@H](O)c1ccc(NS(C)(=O)=O)cc1`, for which the activation was inactive: -12.8%.

Consider `O=C(O)c1c(C(=O)O)c2ccccc2[nH]c1=O`, for which the activation was inactive: 12%.

Take `CC(=O)N1CCC2(CCN(Cc3ccccc3)CC2)CC1`: the activation is inactive: -10.1%.

With `Cc1cc(C)nc(S[C@@H]2C[C@@H](C(=O)N3CCCN(C)CC3)N(Cc3cc(F)ccc3F)C2)n1`, the activation was inactive: -5.45%.

Consider `CC=C1C2C=C(C)CC1(N)c1ccc(=O)[nH]c1C2` (stereo not given), for which the activation is inactive: 1.46%.

In the case of `COCCNc1nc(-c2ccc(C(=O)N(C)C)cc2)nc2ccccc12`, the activation was inactive: -13.1%.

For `COc1cc(O)c(C(=O)/C=C/c2ccc(OC)c(O)c2)c(OC)c1`, the activation is inactive: 4.3%.

As to `CNc1ncnc2ccc(-c3cccc(OC)c3)cc12`, the activation was inactive: -1.86%.

Take `C=CCc1ccc(O)c(OC)c1`: the activation is inactive: -11.3% and inactive: -8.61% and inactive: -7.29%.

`CS(=O)(=O)Nc1cccc(-c2nc(NCc3cccs3)c3ccccc3n2)c1`: the activation was inactive: 5.39%.

On to `COc1ccc(NC(=O)N2CC3(CCN(C(=O)c4cccn4C)CC3)C2)cc1`, for which the activation is inactive: 0.998%.

Consider `Cc1noc(C)c1C(=O)N1CCC2(CCCN(Cc3ccccc3)C2)CC1`, for which the activation was inactive: -20%.

For `OC[C@@H](O)[C@@H](O)[C@H](O)[C@H](O)CO`, the activation is inactive: -3.39%.

Regarding `CC(=O)N[C@@H](Cc1ccc(O)cc1)C(=O)O`, the activation was inactive: -15.3%.

Turning to `CCCCc1c(C)nc2c(OC)cccc2c1SCC(=O)O`, the activation is inactive: -22.7%.

Turning to `COCc1c(C(=O)NC2CCOC(C)(C)C2)cnn1-c1nccc(-c2cccs2)n1` (stereo not given), the activation was inactive: -6.92%.

Consider `O=S1(=O)CCOC[C@H](CC2CCCCC2)N1Cc1ccccc1Br`, for which the activation was inactive: -28.3%.

As for `COc1cccc(-c2cncnc2-n2ccnc2)c1`, the activation was inactive: -19.5%.

Take `CC1(C)CCC=[N+]1[O-]`: the activation was inactive: -21.1%.

As to `COC(=O)C1=C(C)NC(COC(N)=O)=C(C(=O)OC(C)C)C1c1cccc(Cl)c1Cl` (stereo not given), the activation is inactive: -4.02%.

Turning to `Cc1ccccc1-c1cncnc1Nc1ccc(F)cc1`, the activation is inactive: 4.68%.

Take `CC(=O)OCC(=O)NCCCOc1cccc(CN2CCCCC2)c1`: the activation was inactive: -4.99% and inactive: -32%.

As for `O=[N+]([O-])c1ccc(C=C2c3ccccc3-c3ccccc32)cc1`, the activation is inactive: -12.5%.

On to `CS(=O)(=O)c1ccc(-c2nc(-c3ccc(F)cc3)c(-c3ccncc3)[nH]2)cc1`, for which the activation is inactive: 1.89%.

With `CCn1cc(C(=O)O)c(=O)c2cc(F)c(N3CCNCC3)nc21`, the activation was inactive: -9.85% and inactive: 1.46%.

Consider `COC(=O)[C@H]1[C@H]2CC3c4[nH]c5ccccc5c4CCN3C[C@@H]2CC[C@@H]1O` (stereo not given in full), for which the activation is inactive: 12.5%.

As for `COC(=O)c1c(OCc2cccnc2)cc(=O)n2c1CCN(C(=O)c1c3c(nn1C)CCCC3)CC2`, the activation is inactive: -8.25%.

In the case of `CC(C)=CCOc1ccc(/C=C/C(=O)c2ccc(OCC=C(C)C)cc2OCC(=O)O)cc1`, the activation is inactive: -11.1%.

Take `C[C@@H]1CN(CCCn2c3ccccc3c3ccccc32)C[C@H](C)N1`: the activation was inactive: -19.1%.

Turning to `COC1=CC(C)C2CC3OC(=O)CC4C(C)=C(OC)C(=O)C([C@]2(C)C1=O)[C@]34C` (stereo not given in full), the activation is inactive: 4.87%.

Turning to `O=c1nc2ccccc2c2n1C[C@H](CN1CCN(c3ccccc3)CC1)N2`, the activation is inactive: -8.13%.

As for `COc1ccc(O)c(CN2CCOc3c(cc(-c4cccc(OC)n4)cc3OC)C2)c1`, the activation was inactive: -27.5%.

With `CC(C)(O)CCC(O)[C@@](C)(O)C1CC[C@]2(O)C3=CC(=O)C4CC(O)C(O)C[C@]4(C)C3CC[C@]12C` (stereo not given in full), the activation is inactive: 2.04%.

Turning to `COc1ccccc1-c1coc2cc(O)ccc2c1=O`, the activation is inactive: -13.1%.

With `CC(=O)N[C@@H](Cc1c[nH]c2ccccc12)C(=O)O`, the activation is inactive: -17%.

Turning to `Oc1ccc(C2CNCCc3c2cc(O)c(O)c3Cl)cc1` (stereo not given), the activation was inactive: -1.59% and inactive: -60.5%.
